From a collection of fitness landscapes (doi:10.1126/science.1257360)
Some of the results follow.

B1: PhoQ; a variant is named by its letters at X, in order, P23837 (parent)
chain: MKKLLRLFFPLSLRVRFLLATAAVVLVLSLAYGMVALIGYSVSFDKTTFRLLRGESNLFYTLAKWENNKLHVELPENIDKQSPTMTLIYDENGQLLWAQRDVPWLMKMIQPDWLKSNGFHEIEADVNDTSLLLSGDHSIQQQLQEVREDDDDAEMTHSVAVNVYPATSRMPKLTIVVVDTIPVELKSSYMVWSWFIYVLSANLLLVIPLLWVAAWWSLRPIEALAKEVRELEEHNRELLNPATTRELTSLVRNLNRLLKSERERYDKYRTTLTDLTHSLKTPLXXLQXXLRSLRSEKMSVSDAEPVMLEQISRISQQIGYYLHRASMRGGTLLSRELHPVAPLLDNLTSALNKVYQRKGVNISLDISPEISFVGEQNDFVEVMGNVLDNACKYCLEFVEISARQTDEHLYIVVEDDGPGIPLSKREVIFDRGQRVDTLRPGQGVGLAVAREITEQYEGKIVAGESMLGGARMEVIFGRQHSAPKDE

Variants of: B1
Test: enrichment ratio after two sorts for PhoP signalling (ratio (wild type AVST 3.29)); higher = more functional
Details: with PhoP (E. coli)

Row | Variant | enrichment ratio
1 | LDKI | ≤ 0.25
2 | AGSG | 3.24
3 | SQKG | ≤ 0.25
4 | YLCE | ≤ 0.25
5 | TLDD | ≤ 0.25
6 | MVPK | ≤ 0.25
7 | NYLI | ≤ 0.25
8 | DSYI | ≤ 0.25
9 | KDHG | ≤ 0.25
10 | PKQK | ≤ 0.25
11 | YAFM | ≤ 0.25
12 | QVFV | ≤ 0.25
13 | QTRM | ≤ 0.25
14 | GATM | 15.3
15 | HPVL | ≤ 0.25
16 | IAME | ≤ 0.25
17 | GQND | ≤ 0.25
18 | GLYS | ≤ 0.25
19 | HRGA | ≤ 0.25
20 | GNCH | 3.45
21 | SCNQ | ≤ 0.25
22 | NTWY | ≤ 0.25
23 | RDPV | ≤ 0.25
24 | YTSQ | ≤ 0.25
25 | TSRA | ≤ 0.25

Row | Variant | enrichment ratio
26 | APRE | ≤ 0.25
27 | WTLC | ≤ 0.25
28 | QYGP | ≤ 0.25
29 | KRCG | ≤ 0.25
30 | TKIF | 3.09
31 | MCSF | 6.58
32 | KVHP | ≤ 0.25
33 | YPPN | ≤ 0.25
34 | QASL | 9.99
35 | NRAC | ≤ 0.25
36 | LYMN | ≤ 0.25
37 | GPQN | ≤ 0.25
38 | MGFP | ≤ 0.25
39 | DVNA | ≤ 0.25
40 | IYWR | ≤ 0.25
41 | GKLQ | 7.89
42 | IQLP | ≤ 0.25
43 | PIAS | ≤ 0.25
44 | QCSI | ≤ 0.25
45 | SNYE | ≤ 0.25
46 | TFTF | ≤ 0.25
47 | NSIL | ≤ 0.25
48 | VQVP | ≤ 0.25
49 | MWCL | ≤ 0.25
50 | YKNP | ≤ 0.25

Row | Variant | enrichment ratio
51 | DIPI | ≤ 0.25
52 | GDYL | ≤ 0.25
53 | QRGP | ≤ 0.25
54 | FNFR | ≤ 0.25
55 | RTKT | ≤ 0.25
56 | PHEP | ≤ 0.25
57 | EQFN | ≤ 0.25
58 | NRRV | ≤ 0.25
59 | NYDQ | ≤ 0.25
60 | VCFG | ≤ 0.25
61 | RCSN | ≤ 0.25
62 | QGIH | ≤ 0.25
63 | ARDE | ≤ 0.25
64 | DSHD | ≤ 0.25
65 | IARL | ≤ 0.25
66 | FIYD | ≤ 0.25
67 | IMMQ | ≤ 0.25
68 | VRNV | ≤ 0.25
69 | RWFW | ≤ 0.25
70 | ITQV | ≤ 0.25
71 | NAWD | ≤ 0.25
72 | IFTN | ≤ 0.25
73 | TQEC | ≤ 0.25
74 | LTRY | ≤ 0.25
75 | FNDV | ≤ 0.25

Row | Variant | enrichment ratio
76 | GYVN | ≤ 0.25
77 | NRGG | ≤ 0.25
78 | TTDV | 7.66
79 | DCMR | ≤ 0.25
80 | VTYS | ≤ 0.25
81 | RVMS | ≤ 0.25
82 | KQMA | ≤ 0.25
83 | GFFF | ≤ 0.25
84 | QPAC | ≤ 0.25
85 | VWWM | ≤ 0.25
86 | HYCG | ≤ 0.25
87 | GKSP | ≤ 0.25
88 | NITG | ≤ 0.25
89 | ACSC | 8
90 | HSSY | ≤ 0.25
91 | MGYD | ≤ 0.25
92 | NIMM | 16
93 | SHYP | ≤ 0.25
94 | RFRE | ≤ 0.25
95 | HCPH | ≤ 0.25
96 | TYII | ≤ 0.25
97 | VHGD | ≤ 0.25
98 | ALGQ | ≤ 0.25
99 | KLLM | ≤ 0.25
100 | GMEF | ≤ 0.25

Row | Variant | enrichment ratio
101 | PWLS | ≤ 0.25
102 | PGRH | ≤ 0.25
103 | DPQW | ≤ 0.25
104 | LSNE | ≤ 0.25
105 | KTHF | ≤ 0.25
106 | GKDC | ≤ 0.25
107 | GIFV | ≤ 0.25
108 | NTWQ | ≤ 0.25
109 | NGLM | 13.2
110 | RMTA | ≤ 0.25
111 | SEVI | 12.2
112 | FSAD | ≤ 0.25
113 | PIKT | ≤ 0.25
114 | DYKA | ≤ 0.25
115 | DQDF | ≤ 0.25
116 | FQMA | ≤ 0.25
117 | RKPD | ≤ 0.25
118 | IPQE | ≤ 0.25
119 | YCEW | ≤ 0.25
120 | DEAL | ≤ 0.25
121 | MYNF | ≤ 0.25
122 | RLYC | ≤ 0.25
123 | VNGE | ≤ 0.25
124 | NDMT | ≤ 0.25
125 | NYHS | ≤ 0.25

Row | Variant | enrichment ratio
126 | HKDK | ≤ 0.25
127 | VDHW | ≤ 0.25
128 | VVTW | ≤ 0.25
129 | WDKT | ≤ 0.25
130 | SANH | ≤ 0.25
131 | IKSD | ≤ 0.25
132 | DFYG | ≤ 0.25
133 | FGTC | ≤ 0.25
134 | GNVS | 1.31
135 | NMDT | ≤ 0.25
136 | KFLF | ≤ 0.25
137 | GIAS | 14.2
138 | QCYD | ≤ 0.25
139 | GFVA | ≤ 0.25
140 | FMGC | ≤ 0.25
141 | RVMH | ≤ 0.25
142 | VQNM | ≤ 0.25
143 | NWLN | ≤ 0.25
144 | WYFH | ≤ 0.25
145 | IYKD | ≤ 0.25
146 | QVFL | 0.258
147 | TFTH | ≤ 0.25
148 | ELIN | ≤ 0.25
149 | LFYD | ≤ 0.25
150 | SPGP | ≤ 0.25

Row | Variant | enrichment ratio
151 | TKAP | ≤ 0.25
152 | NTFN | ≤ 0.25
153 | SHRF | ≤ 0.25
154 | GVKN | ≤ 0.25
155 | QQAG | ≤ 0.25
156 | PWIE | ≤ 0.25
157 | TSPG | ≤ 0.25
158 | SDNW | ≤ 0.25
159 | FHHC | ≤ 0.25
160 | LYWS | ≤ 0.25
161 | CLPT | ≤ 0.25
162 | ECKD | ≤ 0.25
163 | VEFY | ≤ 0.25
164 | WGNL | ≤ 0.25
165 | NTHA | ≤ 0.25
166 | SCWD | ≤ 0.25
167 | LGRF | ≤ 0.25
168 | EWVL | ≤ 0.25
169 | QTDI | 7.15
170 | MDMK | ≤ 0.25
171 | TLVC | ≤ 0.25
172 | TSRK | ≤ 0.25
173 | FLFD | ≤ 0.25
174 | QTHV | ≤ 0.25
175 | WQLF | ≤ 0.25

Row | Variant | enrichment ratio
176 | AHTA | ≤ 0.25
177 | NDLL | ≤ 0.25
178 | FTEH | ≤ 0.25
179 | QIWL | ≤ 0.25
180 | EDIA | ≤ 0.25
181 | FMAC | ≤ 0.25
182 | SADM | ≤ 0.25
183 | AQYS | ≤ 0.25
184 | FSRC | ≤ 0.25
185 | QSIC | ≤ 0.25
186 | WNRF | ≤ 0.25
187 | RNPA | ≤ 0.25
188 | TDMG | ≤ 0.25
189 | WRAK | ≤ 0.25
190 | HNGN | ≤ 0.25
191 | MNPG | ≤ 0.25
192 | TYDK | ≤ 0.25
193 | VVSQ | ≤ 0.25
194 | AVPM | 1.53
195 | RLAG | ≤ 0.25
